In PubChem BioAssay AID1346428 (National Center for Advancing Translational Sciences (NCATS), 2018):
Hit rate of the full screen: of about 48,000 compounds, about 1,200 (2.5%) were called active. About 2% were inconclusive and are not listed.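 Rule for the calls: active = activation of at least 60% and not above a set upper limit (about 1 call in 100 departs from these limits); inconclusive = activation of 40% to 60%, or above that upper limit; inactive = activation under 40%.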 The list shows a part of the results.

Target: Probable G-protein coupled receptor 32 (Homo sapiens) (UniProt O75388)
Assay: qHTS for Agonists of Human Resolvin D1 Receptor DRV1; note: 0% is about no effect
Settings: CHO-K1 GPR32 beta-arrestin PathHunter luminescence, 90 min; at 76.9 µM; hits give high values; zero percent set by DMSO-only wells
In short: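 Using DMSO wells as EC0, agonist-induced signal was taken as chemiluminescence from beta-Gal reconstituted upon beta-arrestin recruitment to GPR32 in CHO-K1 cells after 90 min compound treatment.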

Sequence of UniProt O75388 (O75388 whole entry, looked up): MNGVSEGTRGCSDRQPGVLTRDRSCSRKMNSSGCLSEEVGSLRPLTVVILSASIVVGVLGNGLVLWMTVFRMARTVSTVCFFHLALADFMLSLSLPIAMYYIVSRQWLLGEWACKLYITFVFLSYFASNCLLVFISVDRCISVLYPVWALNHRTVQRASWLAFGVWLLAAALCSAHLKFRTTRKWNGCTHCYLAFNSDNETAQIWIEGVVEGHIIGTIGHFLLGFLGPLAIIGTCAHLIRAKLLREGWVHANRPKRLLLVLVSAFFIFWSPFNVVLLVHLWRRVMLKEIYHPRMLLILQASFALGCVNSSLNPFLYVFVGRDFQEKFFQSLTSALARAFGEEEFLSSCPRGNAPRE

activation, inactive:
COC(=O)c1c(NC(=O)COc2c(C)ccc(C)c2C)sc2c1CCC(C)C2 (stereo not drawn) 14.4%
CCCSc1nc2c(c(=O)[nH]1)C(c1ccc(F)cc1F)CC(=O)N2 (stereo not drawn) -4.49%
O=C(Cn1ncc2ccsc2c1=O)N1CCN(c2ccccc2)CC1 -0.808%
CCOc1ccc(NC(=O)[C@H](Cc2ccccc2)N2Cc3ccccc3C2=O)cc1 28.2%
O=S(=O)(Nc1cccc(-c2ccc(N3CCOCC3)nn2)c1)c1ccccc1C(F)(F)F 22.1%
CCN(CC)c1cc2c(cc1F)c(=O)c(S(=O)(=O)c1ccc(C)cc1)cn2Cc1ccc(F)cc1 -4.81%
CCCN1CCN(c2ncnc3sc(C(=O)Nc4cccc(Cl)c4C)c(C)c23)CC1 -8.72%
O=C(NCCc1ccc(Cl)cc1)c1nc(-c2cccc(F)c2)n2c1CCCCC2 -25.3%
CCOc1ccc(CNC(=O)CN2C(=O)C3CCCCN3c3ccc(C(=O)N4CCCC4)cc32)cc1 (stereo not drawn) -14.1%
CC(C)Oc1ccc(C(=O)N2CC(=O)Nc3ccc(F)cc3C2c2ccc(F)cc2)cc1 (stereo not drawn) -27.8%
COCCNc1ncnc2onc(-c3ccc(F)cc3)c12 25.7%
COc1cc(CNc2ccc3[nH]c(=O)[nH]c3c2)cc(Br)c1OCc1ccc(F)cc1 18.6%
COc1ccccc1CNC(=O)c1cc2cc(C)ccc2n1C 18.4%
COc1ccc(Cn2ccc3nc(C)c(C(=O)N4CCN(c5cc(C)ccc5C)CC4)cc3c2=O)cc1 -23.5%
O=C(CSc1nc(-c2ccccc2)nc2c1CCCC2)c1ccc(Cl)cc1 7.37%
O=C(O)CCc1ccc(-c2cccs2)n1CC(=O)Nc1ccccc1C(F)(F)F -15.3%
Cc1ccc(C)c(NC(=O)Cn2c(=O)n(Cc3ccc4c(c3)OCO4)c(=O)c3ccc(C(=O)NC4CCCCC4)cc32)c1 -2.55%
CCOc1ccc(CNC(=O)c2cnc3sc(N4CCCCCC4)nn3c2=O)cc1OC -6.01%
Cc1ccc(S(=O)(=O)c2nc(S(=O)(=O)c3ccc(C)cc3)c(NC(C)C)s2)cc1 -13.9%
Cn1cc(C(F)(F)F)nc1-c1ccc(OCC(O)CNCCOc2ccc(O)c(C(N)=O)c2)cc1 (stereo not drawn) -2.1%
CCc1cccc(C)c1NC(=O)C(CC)n1ncn2c(cc3cc(C)ccc32)c1=O (stereo not drawn) -15.2%
Cc1ccc2c(c1)CC(C)N2S(=O)(=O)c1nnc(NC(=O)C(C)C)s1 (stereo not drawn) 3.01%
CCCN(C(=O)c1sc2nc3n(c(=O)c2c1C)CCCC3)c1ccccc1C -11.2%
